# In paper PMC6919601, “Identification of Plasmodium dipeptidyl aminopeptidase allosteric inhibitors by high throughput screening” (PLoS ONE, 2019):
# Among all 110,000 compounds or so, about 230 (0.21%) showed an effect of 50% or more. Some of the results follow.
# Target: DPAP1 (Plasmodium falciparum, UniProt Q8IIJ9)
# Assay: primary screen, percent inhibition; read by cleavage of a fluorogenic dipeptide substrate; higher = more effect of the substance
# Parameters: species or system P. falciparum D10 trophozoite lysates; single well
# 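Further: 30 min substrate incubation versus DMSO and 10 µM JCP410 controls.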
# Sequence of DPAP1 (Q8IIJ9 whole entry, looked up): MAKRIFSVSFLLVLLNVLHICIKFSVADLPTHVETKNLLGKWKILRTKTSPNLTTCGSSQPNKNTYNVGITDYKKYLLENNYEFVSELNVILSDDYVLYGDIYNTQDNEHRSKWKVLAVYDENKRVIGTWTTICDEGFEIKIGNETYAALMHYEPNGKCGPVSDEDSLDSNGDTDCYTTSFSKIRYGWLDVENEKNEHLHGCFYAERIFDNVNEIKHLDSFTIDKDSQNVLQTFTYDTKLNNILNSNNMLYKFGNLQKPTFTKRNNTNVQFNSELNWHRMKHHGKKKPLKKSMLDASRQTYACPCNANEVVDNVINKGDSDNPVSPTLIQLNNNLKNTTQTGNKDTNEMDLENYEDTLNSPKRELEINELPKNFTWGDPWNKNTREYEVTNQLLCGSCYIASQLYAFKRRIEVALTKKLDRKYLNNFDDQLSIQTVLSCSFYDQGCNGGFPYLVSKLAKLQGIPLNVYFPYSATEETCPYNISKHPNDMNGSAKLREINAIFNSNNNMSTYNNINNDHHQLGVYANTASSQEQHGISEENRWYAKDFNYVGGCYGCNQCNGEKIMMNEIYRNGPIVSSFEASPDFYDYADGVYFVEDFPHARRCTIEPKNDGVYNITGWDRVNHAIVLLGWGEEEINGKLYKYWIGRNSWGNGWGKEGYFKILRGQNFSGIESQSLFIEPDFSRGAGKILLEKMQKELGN
row,SMILES,% Inhibition @ 10 uM [%]
1,Cc1ccc(C(=O)Nc2ccc(-c3cn4cccnc4n3)cc2)cc1,1.83
2,Cc1nnc(N2CCN(C(=O)NCc3ccc(F)cc3)CC2)c2nn(-c3ccccc3)c(C)c12,-2.66
3,C=CCOc1c(CNc2ccc3[nH]c(O)nc3c2)cccc1OC,-5.15
4,Cc1ccc(-c2cc(C(=O)N3CCCC3)[nH]n2)cc1C,-1.26
5,COc1cc(/C=C2\C(=O)ON=C2C)ccc1O,2.09
6,O=c1c2c3c(sc2nc2c4ccccc4c(Cl)nn12)CCCC3,3.79
7,FC(F)(F)c1nc(Nc2cc(Cl)ccc2Cl)sc1-c1ccccc1,3.25
8,O=C(Nc1ccc2c(c1)OCCO2)C1CCCO1 (stereo not shown),-2.43
9,Cc1ccc(S(=O)(=O)CCc2nnc(NC(=O)c3ccc(Br)cc3)s2)cc1C,-0.467
10,O=C(/C=C/N1CCOCC1)c1ccc(-c2ccccc2)cc1,3.65
11,COC(=O)c1ccc(Cn2nnc(-c3ccc(OCc4ccccc4F)cc3)n2)cc1,-2.5
12,CCc1c(C(=O)N2CCC(Cc3ccccc3)CC2)[nH]c(C)c1C(C)=O,-1.51
13,CCc1ccc(C(=S)Nc2ccccc2)nc1,1.8
14,COc1ccc(S(=O)(=O)NCc2ccc(C(=O)NCCN(C)Cc3ccccc3)cc2)cc1,0.208
15,CCN(CC)c1ccc(CN2CCN(c3ccccc3F)CC2)cc1,-5.94
16,Cc1ccc(C(=O)Nc2sc3c(c2C(=O)N2CCOCC2)CCCCC3)cc1,-2.83
17,FC(F)(F)c1cccc(-c2nnn3c2nc(NCc2ccccc2)c2ccccc23)c1,-2.92
18,CC(C)CCNc1cc(-c2ccccc2)nc2nncn12,-0.808
19,COc1ccccc1C(=O)Nc1ccc(F)c(F)c1,13.3
20,COc1ccc(CCNC(=O)c2cc(-c3ccc(O)cc3)on2)cc1OC,-4.07
21,CO/C(O)=C1\C(C)=NC2=C(C(=O)CC(c3cccs3)C2)C1c1ccsc1 (stereo not shown),3.86
22,COc1ccc(C=O)cc1Br,-1.68

row,SMILES,% Inhibition @ 10 uM [%]
1,COc1cc(/C=c2/sc3nc(=O)c(Cc4ccc(F)cc4)nn3c2=O)cc(OC)c1OC,2.9
2,CCOc1ccccc1NC(=O)C1=C(C)NC(=O)NC1c1ccccc1 (stereo not shown),-5.69
3,Cc1cccn2c(=O)c3cc(C(=O)NC4CCS(=O)(=O)C4)n(C)c3nc12 (stereo not shown),5.31
4,CC(=O)c1ccc(N2CCN(C3CCN(Cc4ccccc4)CC3)CC2)cc1,3.18
5,COc1ccc2[nH]c3c(OC)ncnc3c2c1,1.54
6,CCCc1c(C)nc2ccc(OCCC(C)C)cc2c1Cl,-1.99
7,N#CCNC(=O)[C@@H](CS(=O)(=O)CC1c2ccccc2-c2ccccc21)NC(=O)OCc1ccccc1,4.54
8,N#Cc1nc(/C=C/c2ccc(F)cc2)oc1N1CCOCC1,0.895
9,CC(NC(=O)CCCc1nnc2n(C)c(=O)c3sccc3n12)c1ccc2c(c1)OCCO2 (stereo not shown),-1.31
10,COc1ccc(C(=O)NC(=S)N2CCCCCC2)cc1,-5.11
11,CCc1c(C)sc(N)c1C(=O)OC,1.6
12,O=C(Nc1ccc(Br)cc1)c1cc2ccccc2oc1=O,-0.771
13,COc1ccc(OC)c(NS(=O)(=O)c2ccc(NC(=O)c3ccc(Cl)cc3Cl)cc2)c1,-2.38
14,CCOc1cc(C2NC(S)=NC(C)=C2C(=O)Nc2ccccn2)ccc1OCc1ccccc1 (stereo not shown),3.06
15,Cc1ccc(-c2cc(NC(=O)c3ccccc3F)on2)cc1,-3.24
16,COc1cccc(C2=NOC(C(=O)NC3CCCCC3)C2)c1OC (stereo not shown),-2.16
17,Cc1ccc(NC(=O)CC[C@H](NC(=O)c2ccc(Br)cc2)C(=O)NCC#N)cc1,3.19
18,CCOC(=O)c1ccc(-c2ccc(C=C3C(=O)N(C)C(=O)N(C)C3=O)o2)cc1,2.7
19,CCc1c(C)sc(NC(=O)Cc2ccc(F)cc2)c1C(N)=O,11.4
20,c1cc2c(cc1CNCc1ccc3c(c1)OCO3)OCO2,0.331
21,COc1cc(C)nc(-c2ccc([N+](=O)[O-])cc2)n1,-1.99
22,CCOC(=O)c1c(-c2ccccc2)csc1NC(=O)c1cc(=O)c2cc(Cl)ccc2o1,-6.98

row,SMILES,% Inhibition @ 10 uM [%]
1,C=CCOc1ccc(/C=c2\sc3nc(=O)c(Cc4ccc(C)cc4)nn3c2=O)cc1OC,-4.14
2,CCOC(=O)C1=C(CS(=O)(=O)c2ccc(Cl)cc2)NC(=O)NC1c1ccc(O)c(OC)c1 (stereo not shown),-3.94
3,Cc1ccc(OC(C)C(=O)Nc2ccc3c(c2)OCO3)cc1 (stereo not shown),-0.95
4,CCNc1nc(N)c(C(=O)c2ccc(F)cc2)s1,0.0719
5,O=C(CSc1nnc(CNC(=O)c2cccs2)o1)NCc1ccc2c(c1)OCO2,0.163
6,Cc1ccc2c(c1)-c1c(cnn1CC(=O)N(CCCN1CCOCC1)Cc1ccco1)CO2,-4.01
7,O=C(NCCOCc1ccccc1)c1ccccc1Br,10.4
8,N#Cc1cnc2c(-c3ccc(Cl)cc3)cnn2c1N,3.19
9,CC1(C)CC2(CC(c3ccccc3)c3cc(Cl)c(O)cc3O2)NC(=O)N1 (stereo not shown),-3.04
10,CC(C)Cn1cc(NC(=O)N2CCCN(Cc3ccccc3F)C2)c2ccccc2c1=O,-2.52
11,O=C(CS(=O)(=O)Cc1ccccc1)Nc1ccccc1Cl,3.92
12,CC(=O)CC(C)(C)S(=O)(=O)c1ccc2ccccc2c1,-0.687
13,CC(NC(=O)c1cccc2c1C(=O)N(C1CCCCC1)C2)c1cccs1 (stereo not shown),-4.14
14,Nc1nc(CSc2nc3cccnc3[nH]2)nc(N2CCCCC2)n1,0.83
15,CCC(C)NS(=O)(=O)c1cc(-c2onc(C)c2C)ccc1OC (stereo not shown),-6.66
16,CC(C)=CCCC(C)CN1CCN(CCOCCO)CC1 (stereo not shown),1.62
17,O=C(Nc1cccc2cccnc12)[C@@H]1C2C=CC(C2)[C@@H]1C(=O)O (stereo partly shown),-0.999
18,CCOC(=O)c1cc(-c2ccccc2)n(CCC(=O)N(C)Cc2ccccc2)c1,-0.176
19,C=CCOC(=O)C1=C(C)N=C2CC(C)(C)CC(O)=C2C1c1cccc(Br)c1 (stereo not shown),-2.18
20,Cc1cc(C)nc(Nc2n[nH]c(-c3ccc(Cl)cc3Cl)n2)n1,-7.22
